{"source": "PubChem BioAssay AID1466", "about": "(National Center for Advancing Translational Sciences (NCATS), 2008)", "note": "Screen size: about 200,000 compounds; about 10 (0.005%) were called active. Inconclusive means that the source gave no clear call. Such entries were picked first, then a sample of the others. Calls follow the shape of the dose curve; as a rule, active = well fitted inhibition curve with a large enough effect; inconclusive = small, poorly fitted or top-dose-only effect, or effect the other way, or another doubt; inactive = no such curve, though single readings can be large or run the other way. No potency is given beside an inconclusive call; the fits are too rough. Potency is read from the fitted curve at half-maximal effect; tags tell the direction and shape of the fitted curve."}
{"molecular_target": "Lysosomal alpha-glucosidase (Homo sapiens) (UniProt P10253)", "assay": "qHTS Assay for Inhibitors of Human alpha-Glucosidase as a Potential Chaperone Treatment of Pompe Disease;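 as to activity change, negative = inhibition: plate controls were uninhibited enzyme wells for no effect and no-enzyme background for full effect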", "details": "purified human GAA, 4-MU-alpha-glucoside fluorescence; activity change, negative = inhibition: at 76.9 µM (top of the series) unless noted", "in_short": "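Human enzyme at 4 nM with 400 uM 4-methylumbelliferyl-alpha-D-pyranoside, citrate/phosphate buffer pH 5.0, 0.005% Tween-20, 20 min at room temperature. Compounds up to 77 uM. 4-MU fluorescence (Ex 365/Em 440) read after NaOH/glycine stop; AC50 from Hill fit.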"}
{"smiles": "Cn1c(-c2ccc(Cl)cc2)cnc1NCc1cc2c(cc1[N+](=O)[O-])OCO2", "Potency": "inconclusive [inhibitor, single point]"}
{"smiles": "CN1CCN(C/C(=C2/N=C(c3ccccc3)OC2=O)N(C)C)CC1", "Potency": "inconclusive [inhibitor, partial curve, poor fit]"}
{"smiles": "Cc1cc2c(=O)n(Cc3ccco3)c(SCC(=O)N3CCCc4ccccc43)nc2s1", "Potency": "inconclusive [inhibitor, single point]"}
{"smiles": "COC(=O)Cc1cc(=O)[nH]c(/N=C(\\N)Nc2ccc(C)cc2C)n1", "activity change, negative = inhibition": "inconclusive: 16.8% [activator]"}
{"smiles": "CCc1ccccc1NC(=S)N1N=CCC1c1ccccc1", "note": "(stereo not drawn)", "Potency": "inconclusive [inhibitor, partial curve, poor fit]"}
{"smiles": "CS(=O)(=O)N(CC(=O)NCc1ccco1)c1ccc2c(c1)OCO2", "Potency": "inconclusive [inhibitor, single point]"}
{"smiles": "O=C1NCCCC2c3c(cc(Br)c(O)c3Br)OC12N1CCOCC1", "note": "(stereo not drawn)", "activity change, negative = inhibition": "inactive: -0.683%"}
{"smiles": "O=C1c2c(O)cc(O)cc2O[C@H](c2ccc(O)c(O)c2)[C@@H]1O", "activity change, negative = inhibition": "inactive: -5.55% [at 15.4 µM]"}
{"smiles": "O=C(Nc1ccccn1)C(=O)Nc1ccccn1", "activity change, negative = inhibition": "inactive: 2.13%"}
{"smiles": "COc1ccc(OCC(=O)N2CCN(S(=O)(=O)c3ccc(Cl)cc3)CC2)cc1", "activity change, negative = inhibition": "inconclusive: -16.1% [inhibitor]"}
{"smiles": "CN1CCc2c(sc3c2C(=O)NC(c2ccccn2)N3)C1", "note": "(stereo not drawn)", "Potency": "inconclusive [activator, single point]"}
{"smiles": "Cc1ccc(S(=O)(=O)N2CCN(C(C)C(=O)N3CCCc4ccccc43)CC2)cc1", "note": "(stereo not drawn)", "Potency": "inconclusive [inhibitor, partial curve]"}
{"smiles": "Cc1nn(-c2ccccc2)c(Oc2ccc(F)cc2)c1/C=N/n1cnnc1", "Potency": "inconclusive [inhibitor, single point]"}
{"smiles": "CCc1c(SCCC(=O)O)nc2ccccc2c1C", "activity change, negative = inhibition": "inconclusive: 16.8% [activator]"}
{"smiles": "CC(/C=N/n1c(-c2cc(C)[nH]n2)n[nH]c1=S)=C\\c1ccccc1", "Potency": "inconclusive [inhibitor, single point]"}
{"smiles": "COc1ccc(CC2(CO)CCN(S(=O)(=O)c3sccc3C)CC2)cc1", "Potency": "inconclusive [inhibitor, single point]"}
{"smiles": "Nc1n[nH]c(N)c1N=Nc1ccccc1", "Potency": "inconclusive [inhibitor, partial curve]"}
{"smiles": "O=C1CN(S(=O)(=O)c2ccc(F)cc2)CC(=O)N1CCc1ccccc1", "activity change, negative = inhibition": "inconclusive: 15.7% [activator]"}
{"smiles": "O=c1[nH]c2cc3c(cc2cc1C(c1nnnn1Cc1ccccc1)N1CCN2CCCC2C1)OCCO3", "note": "(stereo not drawn)", "Potency": "inconclusive [activator, partial curve]"}
{"smiles": "CCOc1ccc(C(CC(=O)O)n2cnnn2)cc1OC", "note": "(stereo not drawn)", "activity change, negative = inhibition": "inactive: 4.13%"}
{"smiles": "Fc1cccc(-n2c(-c3ccco3)nc3nc4ccccc4nc32)c1", "Potency": "inconclusive [activator, full curve]"}
{"smiles": "COC(=O)[C@@]1(Cc2ccc(OC)cc2)[C@H]2c3cc(C(=O)N4CCCC4)n(Cc4ccc(C)o4)c3C[C@H]2CN1C(=O)c1ccccc1", "Potency": "inconclusive [inhibitor, single point]"}
{"smiles": "CCOC(=O)c1sc2nc(CC(=O)OC)nc(NCc3ccco3)c2c1C", "Potency": "inconclusive [inhibitor, full curve, poor fit]"}
{"smiles": "Cc1c(NC(=O)CN2CCN(c3ccc(O)cc3)CC2)c(=O)n(-c2ccccc2)n1C", "activity change, negative = inhibition": "inactive: 2.14%"}
{"smiles": "COc1ccc(C(=O)C2CC2c2ccc3c(c2)OCO3)cc1", "note": "(stereo not drawn)", "activity change, negative = inhibition": "inconclusive: -15.2% [inhibitor]"}
{"smiles": "COc1cccc(NC(=O)Nc2ccccc2SC)c1", "activity change, negative = inhibition": "inconclusive: 15.4% [activator]"}
{"smiles": "CCOc1ccc(NC(=O)c2cccnc2C(=O)O)cc1", "Potency": "inconclusive [inhibitor, single point]"}
{"smiles": "NC(=O)c1ccccc1NS(=O)(=O)c1ccccc1", "Potency": "inconclusive [inhibitor, single point]"}
{"smiles": "CC(=NCc1cccc(Cl)c1)c1nc(-c2ccco2)oc1O", "Potency": "inconclusive [inhibitor, single point]"}
{"smiles": "COc1ccccc1C(=O)NNC(=O)c1ccc(F)cc1", "Potency": "inconclusive [inhibitor, full curve, poor fit]"}
{"smiles": "Cc1ccc(CN2C(=O)CCC2C(=O)NCc2ccccc2Cl)cc1", "note": "(stereo not drawn)", "Potency": "inconclusive [inhibitor, partial curve]"}
{"smiles": "CCOc1cc(Br)c(/C=C2/C(=O)N(C)C(=S)N2CC(=O)OC)cc1OC", "Potency": "inconclusive [inhibitor, single point]"}
{"smiles": "O=[N+]([O-])c1ccc(N2CCN(CC(O)COc3ccccc3)CC2)cc1", "note": "(stereo not drawn)", "activity change, negative = inhibition": "inconclusive: 19.5% [activator]"}
{"smiles": "COC(=O)c1ccc(/C=N/NC(=O)CCSc2nc3ccccc3s2)cc1", "Potency": "inconclusive [inhibitor, single point]"}
{"smiles": "FC(F)Oc1ccccc1C1CC(c2ccc(Br)s2)Nc2ncnn21", "note": "(stereo not drawn)", "Potency": "inconclusive [inhibitor, single point]"}
{"smiles": "COc1ccc(S(=O)(=O)NNC(=O)c2cc3cc4ccccc4nc3s2)cc1", "Potency": "inconclusive [inhibitor, partial curve, poor fit]"}
{"smiles": "Cc1ccc(S(=O)(=O)Nc2cc(Cl)c(O)cc2C)cc1", "activity change, negative = inhibition": "inactive: -10.4%"}
{"smiles": "S=C(NCc1ccc(Cl)cc1)NC12CC3CC(CC(C3)C1)C2", "Potency": "inconclusive [inhibitor, single point]"}
{"smiles": "CCOC(=O)c1c(N)ssc1=S", "Potency": "inconclusive [inhibitor, full curve, poor fit]"}
{"smiles": "CN(C)C(=O)CSc1nnc(-c2cc(-c3cccs3)nc3ccccc23)o1", "Potency": "inconclusive [activator, single point]"}
{"smiles": "COc1cccc(CN(C)C(=O)c2ccc(S(=O)(=O)N3CCCC3)cc2)c1OC", "activity change, negative = inhibition": "inconclusive: -16.5% [inhibitor]"}
{"smiles": "CCOP(=O)(OCC)/C(=C/N1CCCCC1)NC(=O)c1ccccc1", "activity change, negative = inhibition": "inconclusive: 17.3% [activator]"}
{"smiles": "COc1ccccc1OCC(=O)NCc1cccs1", "Potency": "inconclusive [inhibitor, full curve, poor fit]"}
